Holding throughout (experiment): glycan array binding signal (z-score within array); higher = stronger binding
Holding throughout (conditions): glycan notation: IUPAC condensed, linker removed

Test [1] addresses Gal(b1-4)GlcNAc(b1-2)Man(a1-6)[GlcNAc(b1-2)Man(a1-3)]Man(b1-4)GlcNAc(b1-4)GlcNAc. In outline:
(§1)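 The binding signal is a Z-score computed within each array and averaged over linkers. Arrays of the same protein sequence at different concentrations or buffers were also averaged together. Data originate from 3228 arrays in the Consortium for Functional Glycomics database, kept only where the protein sequence was available.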

The target of test [2] is Gal(b1-4)GlcNAc(b1-2)Man(a1-6)[Man(a1-3)]Man(b1-4)GlcNAc(b1-4)GlcNAc. In outline:
as §1

Test [3] deals with Gal(b1-4)GlcNAc(b1-2)[Gal(b1-4)GlcNAc(b1-4)]Man(a1-3)[Gal(b1-4)GlcNAc(b1-2)Man(a1-6)]Man(b1-4)GlcNAc(b1-4)GlcNAc. In outline: as §1
For test [4], the target named is Gal(b1-4)GlcNAc(b1-2)[Gal(b1-4)GlcNAc(b1-4)]Man(a1-3)[Gal(b1-4)GlcNAc(b1-2)[Gal(b1-4)GlcNAc(b1-6)]Man(a1-6)]Man(b1-4)GlcNAc(b1-4)GlcNAc. In outline:
as §1

The target in test [5] is Gal(b1-4)GlcNAc(b1-2)[Gal(b1-4)GlcNAc(b1-4)]Man(a1-3)[GlcNAc(b1-4)][Gal(b1-4)GlcNAc(b1-2)Man(a1-6)]Man(b1-4)GlcNAc(b1-4)GlcNAc. Put shortly: as §1
Test [6] addresses Gal(b1-4)GlcNAc(b1-2)[Gal(b1-4)GlcNAc(b1-4)]Man(a1-3)[GlcNAc(b1-4)][Gal(b1-4)GlcNAc(b1-2)[Gal(b1-4)GlcNAc(b1-6)]Man(a1-6)]Man(b1-4)GlcNAc(b1-4)GlcNAc. Put shortly:
as §1

Test [7] has as its target Gal(b1-4)GlcNAc(b1-2)[Gal(b1-4)GlcNAc(b1-6)]Man(a1-6)[Gal(b1-4)GlcNAc(b1-2)Man(a1-3)]Man(b1-4)GlcNAc(b1-4)GlcNAc. In outline:
as §1

For test [8], the target named is Gal(b1-4)GlcNAc(b1-2)[Gal(b1-4)GlcNAc(b1-6)]Man(a1-6)[Gal(b1-4)GlcNAc(b1-2)Man(a1-3)]Man(b1-4)GlcNAc(b1-4)[Fuc(a1-6)]GlcNAc. In outline:
as §1

Test [9] has as its target Gal(b1-4)GlcNAc(b1-2)[Gal(b1-4)GlcNAc(b1-6)]Man(a1-6)[GlcNAc(b1-4)][Gal(b1-4)GlcNAc(b1-2)Man(a1-3)]Man(b1-4)GlcNAc(b1-4)GlcNAc. Put shortly: as §1
Test [10] concerns the target Gal(b1-4)GlcNAc(b1-2)[Gal(b1-4)GlcNAc(b1-6)]Man(a1-6)[GlcNAc(b1-4)][Gal(b1-4)GlcNAc(b1-2)[Gal(b1-4)GlcNAc(b1-4)]Man(a1-3)]Man(b1-4)GlcNAc(b1-4)[Fuc(a1-6)]GlcNAc. In outline: as §1
Test [11] concerns the target Gal(b1-4)GlcNAc(b1-3)Gal(b1-3)GalNAc. In outline:
as §1

The target of test [12] is Gal(b1-4)GlcNAc(b1-3)Gal(b1-3)GlcNAc. In outline:
as §1

In test [13] the target is Gal(b1-4)GlcNAc(b1-3)Gal(b1-4)Glc. Put shortly:
as §1

Test [14] deals with Gal(b1-4)GlcNAc(b1-3)Gal(b1-4)GlcNAc. In outline:
as §1

The target in test [15] is Gal(b1-4)GlcNAc(b1-3)Gal(b1-4)GlcNAc(b1-2)Man(a1-3)[Gal(b1-4)GlcNAc(b1-3)Gal(b1-4)GlcNAc(b1-2)Man(a1-6)]Man(b1-4)GlcNAc(b1-4)GlcNAc. Put shortly: as §1
Test [16] concerns the target Gal(b1-4)GlcNAc(b1-3)Gal(b1-4)GlcNAc(b1-2)Man(a1-3)[Gal(b1-4)GlcNAc(b1-3)Gal(b1-4)GlcNAc(b1-2)Man(a1-6)]Man(b1-4)GlcNAc(b1-4)[Fuc(a1-6)]GlcNAc. Put shortly:
as §1

Test [17] deals with Gal(b1-4)GlcNAc(b1-3)Gal(b1-4)GlcNAc(b1-2)[Gal(b1-4)GlcNAc(b1-3)Gal(b1-4)GlcNAc(b1-6)]Man(a1-6)[Gal(b1-4)GlcNAc(b1-3)Gal(b1-4)GlcNAc(b1-2)Man(a1-3)]Man(b1-4)GlcNAc(b1-4)GlcNAc. In outline:
as §1

In test [18] the target is Gal(b1-4)GlcNAc(b1-3)Gal(b1-4)GlcNAc(b1-2)[Gal(b1-4)GlcNAc(b1-3)Gal(b1-4)GlcNAc(b1-6)]Man(a1-6)[Gal(b1-4)GlcNAc(b1-3)Gal(b1-4)GlcNAc(b1-2)Man(a1-3)]Man(b1-4)GlcNAc(b1-4)[Fuc(a1-6)]GlcNAc. In outline: as §1
Test [19] addresses Gal(b1-4)GlcNAc(b1-3)Gal(b1-4)GlcNAc(b1-3)Gal(b1-4)GlcNAc. In outline: as §1
The target in test [20] is Gal(b1-4)GlcNAc(b1-3)Gal(b1-4)GlcNAc(b1-3)Gal(b1-4)GlcNAc(b1-2)Man(a1-3)[Gal(b1-4)GlcNAc(b1-3)Gal(b1-4)GlcNAc(b1-3)Gal(b1-4)GlcNAc(b1-2)Man(a1-6)]Man(b1-4)GlcNAc(b1-4)GlcNAc. In outline: as §1
Test [21] concerns the target Gal(b1-4)GlcNAc(b1-3)Gal(b1-4)GlcNAc(b1-3)Gal(b1-4)GlcNAc(b1-2)Man(a1-3)[Gal(b1-4)GlcNAc(b1-3)Gal(b1-4)GlcNAc(b1-3)Gal(b1-4)GlcNAc(b1-2)Man(a1-6)]Man(b1-4)GlcNAc(b1-4)[Fuc(a1-6)]GlcNAc. Put shortly:
as §1

Test [22] concerns the target Gal(b1-4)GlcNAc(b1-3)Gal(b1-4)GlcNAc(b1-3)Gal(b1-4)GlcNAc(b1-2)[Gal(b1-4)GlcNAc(b1-3)Gal(b1-4)GlcNAc(b1-3)Gal(b1-4)GlcNAc(b1-6)]Man(a1-6)[Gal(b1-4)GlcNAc(b1-3)Gal(b1-4)GlcNAc(b1-3)Gal(b1-4)GlcNAc(b1-2)Man(a1-3)]Man(b1-4)GlcNAc(b1-4)[Fuc(a1-6)]GlcNAc. In outline: as §1

From the supplement of paper PMC8728848 come the findings set out here.

The other results are listed elsewhere or left out.

B1: MpAFP NterminalRI GFP (Marinomonas primoryensis) (protein)
chain: MSDNQFPFATLGNAIGFITKLDGSVTVQSIDGQERVLKLGDPIFFGETVLTGGSGSVTIAFVDGTDVVIGGDSIVEMTDEIYNTGDNEDLVADSSSEIDALQNAILAGDDPTLIQDAPAAGNTLADQQRVDVSIERNDNSAQAGFGVDTQSSLPTYGYDTDNGNGGQATEREYSAPSLSRTLNQSPLLEHHHHHH
In the case of B1, the “glycan array binding signal (z-score)” value in test [1] is 0.027; in test [2] it was -0.506; in test [3] it was -0.11; in test [4] it was -0.309; in [5], -0.371; in test [6] it was -0.342. In addition, the “glycan array binding signal (z-score)” value is -0.449 in test [7]; -0.054 in test [8]; -0.293 in test [9]; -0.156 in test [10]; -0.412 in [11]; 1.27 in test [12]. Moreover, the “glycan array binding signal (z-score)” value in test [13] is -0.31; in [14] it was -0.541; in [15], 1.24; in test [16], 0.687; in test [17], 1.28; in [18], 4.16. The “glycan array binding signal (z-score)” value in test [19] was -0.442; in [20], 0.792; in test [21], 0.649; in test [22], 2.76.
